Experimental data as given in the supplement of paper PMC3334620.
The full ranking holds about 33,000 sequences; the median of “E-score (-0.5 to 0.5)” is about -0.016, and the highest 2% start at about 0.31. The list shows a part of the results.

Target: Cst6 (UniProt P40535)
Assay: PBM E-score (8-mer binding enrichment) (E-score (-0.5 to 0.5)); higher = stronger / more preferred TF binding; most listed sequences are background and not binding sites
Conditions: protein concentration: 200 nM; construct: GST-DNA-binding domain
Experimental: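 Universal 'all 10-mer' protein binding microarrays (Agilent AMADID 015681) probed with GST-tagged S. cerevisiae TFs (full-length or DBD) made by in vitro transcription/translation (PURExpress), about 100-200 nM. Bound TF was detected with fluorescent anti-GST. Each ungapped 8-mer (which stands for itself and its reverse complement) is scored by the PBM enrichment score (E-score), a modified Wilcoxon-Mann-Whitney statistic from -0.5 to +0.5, computed with the Universal PBM Analysis Suite. Scale: above 0.35 generally sequence-specific binding.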

Sequence | PBM E-score
CACGTCCG | -0.146
GGGGTTAA | -0.213
CGGACGGA | -0.157
ACCAATCC | -0.0861
AAACTGGT | 0.00264
CCTTGAAC | -0.128
GACACTGA | 0.0443
GAGTGTAC | -0.164
GTAGCACA | -0.0684
CTCAAATA | 0.105
GGTAAGAC | -0.069
ACAAGGCC | -0.3
AGCTGGAT | -0.0868
CTTATACA | 0.0243
CTGATTTA | 0.0774
ATAATCGG | 0.229
ATACCATC | 0.00666
CCTTGTTA | 0.113
ATCTGATG | -0.0889
GCGGAAAC | -0.179
AGTCGTTA | 0.0351
ACGGTGTA | 0.0103
CGTCCCCC | -0.393
GCGCACAA | 0.098
AAGAATAT | -0.0598

Sequence | PBM E-score
CTAGTTGC | -0.0674
ACAGTGCG | -0.0367
GAGCGATA | -0.0987
ACTCCTCG | -0.0384
CGCAGATA | -0.135
ATCTCGAC | -0.056
GAATGGCA | 0.104
CAGGAGGA | -0.308
GACTACAA | 0.044
ACGAGCGA | 0.0785
AGGCAGTA | -0.203
TAACGAAA | 0.27
GAACATAC | 0.109
ACAAAAAC | 0.104
GGCAACAC | 0.0798
TCCGTACA | 0.0513
GTATCTAA | 0.121
CGTCTCTC | -0.0567
ACCGGTTG | -0.112
ACTCTTCA | 0.0193
CACTAATG | 0.0806
ACCAGTCT | -0.143
GTGACGCA | 0.471
AAGTATAC | 0.114
ACGTCTGG | 0.102

Sequence | PBM E-score
ACTCCCCC | -0.299
ACTTGAAC | -0.0383
ATCTTAGA | 0.155
ATTATGTA | 0.355
GTCGAATA | -0.0161
CATAATGG | -0.0715
AGACGGAG | -0.0968
ATACGCTA | -0.151
GATATGAA | 0.141
CACAGCGA | 0.107
CCGTTACC | -0.143
GTGCGCCA | -0.117
GTAAAAAA | 0.186
TGGCTAAA | 0.0343
ATTCCTAA | 0.111
CTCTGCAA | -0.0726
TGTCATAA | 0.323
GCGACTCC | -0.383
GATCAAAA | 0.094
AAACGAAG | 0.0747
CGACGTTC | -0.229
AGCAATGC | 0.00876
AGATGGGA | -0.125
AGTCGATA | -0.0231
AGACAGAT | 0.0887

Sequence | PBM E-score
ATAAGGCC | -0.16
AACTCTTG | -0.0742
AGTCTGGG | -0.29
AACACGGC | 0.218
CAACGACA | 0.189
CCTTAGTA | -0.0791
AACTCCGC | -0.221
CAGACCTA | -0.00947
CGCAAGGC | 0.213
ATCCTACA | -0.125
CGGAGCAC | -0.194
ATCATGCG | 0.147
ACGGGGAG | -0.22
CGTAACAG | 0.292
ATTCAAAG | 0.0878
CGCGGGTC | 0.0698
GATAAATA | 0.153
GGCTAAAC | 0.00854
TGGTTGAA | -0.178
CACCGAAG | 0.0337
ATGATCCC | -0.0397
AACGTCAC | 0.488
GGGCGCAA | -0.0785
GGATTATA | -0.0365
AGTTCGAG | 0.0173

Sequence | PBM E-score
AAATTCAC | 0.163
CACCGCCA | -0.0471
GCGTCGCC | -0.0304
CAATTGCC | -0.0268
ATGCCCAC | -0.0872
CGGTTCTA | -0.0455
CTCCAACC | -0.047
TAGAGAGA | 0.06
CCCCAGGG | -0.435
ACAAATCA | 0.169
AGAGATGG | 0.075
GTGATAAC | 0.165
GGATCACA | 0.0122
GACGAATC | 0.165
AGTAACAG | 0.0458
AGATACCC | -0.0749
CGCTCATA | 0.0501
AAGCCCGG | -0.209
GAACGATA | -0.0244
ACATGAGC | 0.0157
CAGACCCC | -0.316
ACCTCTGG | -0.164
AAACCCTA | -0.141
CTCGAAAA | 0.0887
CAAAAACG | 0.121

Sequence | PBM E-score
CGGGGGCA | -0.273
CAACCAAG | 0.0364
AAATAGGG | -0.198
GGCACTTA | -0.00485
CAGTTAGG | -0.0638
AGTCTTAG | -0.218
CACAGCTG | -0.131
CTCACGGC | 0.105
ATTGTACC | 0.052
GGTACCGA | -0.345
TACGCCGA | -0.0328
ACGCAGGG | 0.0221
AAGCGGGG | -0.179
CGTTTAAG | 0.0111
AGCTCAGC | -0.203
AACCATCG | 0.163
AAATTTAC | 0.222
GAAAAACC | 0.0383
CTCGGTGC | -0.142
CGCACTGC | 0.00772
AAATGTGT | 0.216
AGACGTCT | -0.207
AGCGAATA | 0.126
CTGATGTA | 0.326
TCAATGCA | 0.102

Sequence | PBM E-score
AACTGTAC | -0.0682
GTGAATCA | 0.0592
CCGGCCCC | -0.374
GTTATACA | 0.0889
ACCTTGAG | 0.0478
GGGTAAAC | -0.0631
GAACAGTA | 0.121
ACCAGGGT | -0.319
CAGAATGG | -0.0138
AGTCTCGG | -0.273
ATGGCATA | 0.211
AGCCCATG | -0.0782
CTTATATC | 0.291
AGGATAGA | 0.0193
AGATCCCC | -0.237
CCTAATCA | 0.172
CTCTTAAA | 0.112
ATTACTTC | 0.133
CCTTTGGA | -0.228
CACTCACC | 0.0044
AAGGCTCT | -0.0115
AGTCCCCC | -0.43
AGAAGAAT | -0.0262
ATGTCCCC | -0.168
AGAGAAAT | 0.128

Sequence | PBM E-score
AAACGTGG | -0.122
GAGGTGCA | 0.0333
AAAGCGCC | 0.113
CGTTCCTA | -0.00988
AAATGAAT | 0.0873
AGATAATA | 0.203
ACTGGATC | -0.0585
ATACTGCA | 0.0679
CGCCACTC | 0.0123
CAGATCAG | 0.0267
CGACTATA | 0.0833
CTATCCAC | -0.0799
AGCCCTAA | -0.0389
ACACACGA | 0.0814
GCTCAAGA | -0.169
CTGTATTC | 0.0607
GGTGTGTA | -0.152
CCGAATCC | -0.153
CCGATGAG | -0.087
CCATTGCC | 0.0353
CGCTCGCC | -0.0525
CTCCGCGA | -0.236
AGTCTCCA | -0.193
CTCTTGCA | -0.139
TAATGGCA | 0.179

Sequence | PBM E-score
ATCTCACC | 0.0941
ACCTTGAC | -0.016
ACATCCTC | -0.143
ACCATGAT | 0.146
CTAGTCAA | -0.127
CGGCCAAG | -0.157
GGGTAGAC | -0.299
TTGGCAAA | 0.242
TAACCTTA | -0.0914
AATATACA | 0.207
CGTGTTCA | 0.0994
GGTGGTGA | 0.0974
ATTTAAAC | 0.255
AGTCACTG | 0.0602
CTCCTTAA | -0.106
GGCTGGAC | -0.329
ACGAACTC | 0.113
ATATGTCG | 0.185
CAGGACGG | -0.0963
